According to PubChem BioAssay AID1508623 (National Center for Advancing Translational Sciences (NCATS), 2021):
About 450 (0.94%) of roughly 48,000 compounds were called active. Inconclusive results (about 19%) are left out. Calls come from the whole dose curve; as a rule, active = well fitted inhibition curve with a large enough effect; inconclusive = small, poorly fitted or top-dose-only effect; inactive = no such curve, though single readings can be large or run the other way. The list shows a part of the results.

test: Primary qHTS for Identification of Small Molecule Inhibitors of Huntingtin Promoter Activity; details: HEK293 HTT promoter firefly luciferase reporter (activity 0% = vehicle and -100% = no light), 24 h; series mostly up to 57.5 µM; activity change, negative = inhibition: at the top concentration; note: nearly all actives have a fitted effect of over 50% in size
How it was run: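 Firefly luciferase signal from promoter-reporter HEK293 cells was scaled between vehicle (0%) and zero RLU (-100%). Compounds were tested at final concentrations of up to 57.5 uM over 24 h at 37 degrees C. PTC124 at 50 uM final served as control inhibitor.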

Activity change, negative = inhibition, inactive:
CCCSCCCNC(=O)c1sc2nc(C)cc(C)c2c1-n1cccc1 -7.19%
COc1cccc(NCc2nnc3n2CCCCC3)c1 3.84%
Cc1ccc(-c2noc(-c3cccnc3N(C)Cc3ccc(Cl)cc3)n2)cc1 3.13%
CCOc1ccc(NC(=O)CN(c2ccc(C)cc2)S(=O)(=O)c2cccs2)cc1 -6.08%
COc1cccc(CNC(=O)c2ccc3nc(CCc4ccccc4)oc3c2)c1OC -0.895%
COc1ccc(-c2nc3ccccc3s2)cc1NC(=O)c1cccc(F)c1 -19.2%
Cc1ccc(-n2nc(C)c3c(C)c(CCC(=O)NCc4ccc(Cl)cc4)c(C)nc32)cc1 -17.5%
CCOc1ccc(CNCCSc2nnnn2C)cc1 -10.4%
CCOc1ccc(NC(=O)Cn2nc(CC)n3c(cc4sccc43)c2=O)cc1 8.02%
Cc1ccc2c(c1)c1c(c(=O)n(-c3cccc(Cl)c3)c(=O)n1CC(N)=O)n2C -13.3%
COc1ccc(OCC(=O)Nc2cc(-c3nc4ccccc4o3)ccc2Cl)cc1 49%
CCC(=O)N1CCc2cc(S(=O)(=O)NCCC(=O)Nc3ccc(C)cc3C)ccc21 -23.9%
COc1ccccc1OCCNCC(O)COc1cccc2[nH]c3ccccc3c12 (stereo not drawn)
Cc1ccc(NC(=O)CN2C(=O)c3ccccc3Sc3ccc(C(=O)N4CCOCC4)cc32)cc1C -31.3%
CC1CCc2noc(NC(=O)c3ccc([N+](=O)[O-])cc3)c2C1 (stereo not drawn) -1.74%
Cc1ccc(NC(=O)CSc2nc3nccnc3c(=O)n2CCc2c[nH]c3ccccc23)cc1C -13.9%
CC(=O)c1cccc(NC(=O)c2cc3sc(Cl)cc3n2C)c1 24.1%
Cc1ccc(CNC(=O)Cn2ccn(-c3ccc(F)c(F)c3)c(=O)c2=O)cc1 -7.6%
CCC(Sc1nc2ccncc2[nH]1)C(=O)Nc1cc(C)ccc1C (stereo not drawn) -35%
CCCn1c(=N)c(C(=O)NCc2ccco2)cc2c(=O)n3cc(C)ccc3nc21 1.86%
CCn1cc(/C=C(\NC(=O)c2ccccc2Cl)C(=O)NCCCn2ccnc2)c2ccccc21 -11.7%
Cc1ccc(C2N3CC4(C)CN2CC(c2ccccc2)(C3)C4=O)cc1 (stereo not drawn) -19.2%
CCOCCCNC(=O)C(c1ccc(Cl)cc1)N(Cc1ccc2c(c1)OCO2)C(=O)c1ccc(NC(C)=O)cc1 (stereo not drawn) -15.5%
CC(C)c1nc(CN(C)C(=O)N[C@H](C(=O)N[C@@H](Cc2ccccc2)C[C@H](O)[C@H](Cc2ccccc2)NC(=O)OCc2cncs2)C(C)C)cs1
CCC(=O)Nc1ccc(-c2nc3ncccc3o2)cc1C 30.8%
Cc1ccc(Cl)cc1NC(=O)c1cc(S(=O)(=O)N2CCOCC2)cn1C -1.05%
COc1ccccc1CNS(=O)(=O)c1c(C)nc2sc(C)cn2c1=O -0.638%
CC1CCN(S(=O)(=O)c2ccc3c(c2)N(CC(=O)NCCN(C)C)C(=O)CS3)CC1 0.515%
COC(=O)c1cc(NC(=O)Cn2ncc3c([nH]c4ccccc43)c2=O)cc(C(=O)OC)c1 -2.05%
CCCCN(C)C(=O)C1CCC(Cn2c(=O)[nH]c3ccsc3c2=O)CC1 (stereo not drawn) -9.69%
O=C(Cn1c(=O)c2cccn2c2ccc(F)cc21)Nc1cccc(F)c1 -20.3%
OC(c1ccccc1)c1nc2ccccc2n1Cc1c(F)cccc1Cl (stereo not drawn) -6.92%
Fc1ccc(-n2nc(-c3ccccc3)c3cnc4ccccc4c32)cc1Cl 13%
CCOc1ccc(-c2cc3c(=O)n(CC(=O)NCc4ccccc4)ccn3n2)cc1 33.4%
COCCNC(=O)CSc1nc(-c2ccc(C)cc2)[nH]c1-c1ccc(OC)cc1 -1.91%
CC(C)CCNC(=O)C1CCC(CNS(=O)(=O)c2cccc3nsnc23)CC1 (stereo not drawn) -8.31% [at 11.5 µM]
CCc1ccc(NC(=O)CN2C(C(=O)OC)=C(c3ccccc3)c3ccccc3S2(=O)=O)cc1 -24.2%
CCCc1nn2c(=O)cc(COC(=O)c3ccccc3NC(=O)c3ccc(OCC)cc3)nc2s1 -0.38%
Cc1ccc(C(=O)c2cn(Cc3ccccc3)c3ccccc3c2=O)cc1 -13.1%
Cc1ccccc1OCC(=O)Nc1ccccc1C(=O)OCc1cc(=O)n2nc(C3CC3)sc2n1 -28.5%
Cc1cccc(NC(=O)c2oc3ccccc3c2NC(=O)Cc2coc3cc(C)cc(C)c23)c1 5.83%
Cc1ccc(-c2c3c(=O)n(C)c(=O)n(C)c3c3c(C)nc4ccccc4n23)cc1 -11.3% [at 11.5 µM]
Cc1cc(N2CCN(c3ccc(F)cc3)CC2)n2cnnc2n1 -9.98%
COc1ccc(Cl)cc1NC(=O)CSc1nc(=O)[nH]c2c1CCC2 -25.9%
O=C(NCCc1ccc(Cl)cc1)c1ccc(CSCc2ccc(Cl)cc2)o1 -21.8%
CCOc1ccc(NC(=O)CCC(=O)N2CCSc3ccccc32)cc1 -16.4%
CCCC(=O)n1nc(-c2cccnc2)nc1NCc1ccccc1 -2.23%
CCc1ccccc1NC(=O)Cn1c(=O)n(CCc2ccccc2)c(=O)c2ccccc21 -6.9%
COc1cccc(NC(=O)CSC2=Nc3ccccc3C3=NC(CC(=O)NCc4ccccc4OC)C(=O)N23)c1 (stereo not drawn) -0.8%
CCCCNC(=O)CCSc1nc(-c2ccc3c(c2)OCO3)cc(C(F)(F)F)n1 -2.32%
O=c1oc2ccc(Cl)cc2cc1-c1cn2c(n1)sc1ccccc12 -28.2%
CCOc1ccc(NC(=O)c2c(NCc3cccs3)sc3c2CCCCC3)cc1 6.24%
OC[C@@H](O)[C@H](O)[C@H](O)[C@@H](O)CO
COc1ccc(C2C=C(c3ccccc3)Nc3nc(NC(=O)/C=C/c4ccccc4OC)nn32)cc1 (stereo not drawn) -20.4%
Cc1ccnc2nc(NC(=O)c3ccccc3Cl)nn12 22.4%
Cc1cccc(N(CC(=O)N(C)Cc2ccccc2)S(=O)(=O)c2ccccc2)c1C -26.5%
CCc1ccc(S(=O)(=O)c2nnn3c2nc(NC(C)C)c2cc(Cl)ccc23)cc1 -10.4%
O=C(NCC1CCCCN1)c1cc(OCC(F)(F)F)ccc1OCC(F)(F)F (stereo not drawn) -30.3%
CC12CN3CC(c4ccccc4)(CN(C1)C3c1ccc(Cl)cc1)C2=O (stereo not drawn) -24.9%
CC(=O)c1cc(-c2ccccc2)n(CCC(=O)NC2CCCCC2)c1C -23.9%
CC1CCc2cc(F)cc3c(=O)c(C(=O)O)cn1c23 (stereo not drawn) 6.42%
COc1ccc(N2CCN(c3oc(/C=C/c4ccccc4OC)nc3C#N)CC2)cc1 -1.76%
CC(C)Oc1ccc(CNC(=O)c2cccc(NC(=O)c3nsc4ccccc34)c2)cc1 -1.21%
CCOc1ccc(CC(=O)Nc2c(C(=O)c3ccc(F)cc3)oc3ccc(Cl)cc23)cc1OCC 4.87%
Cc1cc(C)cc(NC(=O)N2CCC(N3CCN(Cc4ccccc4)C(=O)C3=O)CC2)c1 9.49%
O=C(Nc1ccc(C(=O)OCc2cc(=O)n3ccsc3n2)cc1)c1cccc(F)c1 -4.47%
COc1ccc(OC)c(CNC(=O)C2CCN(S(=O)(=O)c3ccc4[nH]c(=O)oc4c3)CC2)c1 0.884%
COc1ccc(N2Cc3cccc(C(=O)Nc4cccc(F)c4)c3C2=O)cc1 -4.4%
Cc1ccc(-c2cc(NC(=O)C(C)Oc3ccccc3F)on2)cc1 (stereo not drawn) 24%
CN(C)c1ccc(C(=O)Nc2ccc(-c3nc4ccccc4o3)cc2)cc1 16.5%
Cc1cc(NC(=O)C2CCCN(S(=O)(=O)c3cn(C)cn3)C2)ccc1Br (stereo not drawn) -27.6%
Cc1ccc(NC(=O)c2ccc(N(Cc3ccccc3)S(C)(=O)=O)cc2)cc1 -18.8%
CC(C)c1ccc(C2=NC(c3ccncc3)=Nc3ccc(F)cc3N2)cc1 -10.6%
CCCn1cc(S(=O)(=O)c2ccc(CC)cc2)c(=O)c2cc(F)c(N3CCN(C)CC3)cc21 6.41%
COc1ccc(OC)c(CCNC(=O)c2nn(C)c3c2CSc2ccccc2-3)c1 -27.1%
CNC(=O)c1ccc2nc(Cc3ccccc3)oc2c1 44.6%
CCC1CCc2c(sc(NC(=O)C3c4ccccc4Oc4ccccc43)c2C(=O)OC)C1 (stereo not drawn) -31.2%
Cc1ccc(C(=O)c2oc3ccccc3c2NC(=O)C(C)Oc2ccccc2Cl)cc1 (stereo not drawn) 3.99%
COc1ccc(NC(=O)c2c(NCc3cccs3)sc3c2CCCCC3)c(OC)c1 -9.9%
Cc1cc(Br)ccc1NC(=O)CCNS(=O)(=O)c1cccc2nonc12 -10.1%
O=C(Nc1ccc(Br)cc1F)c1cc2nc(-c3ccco3)cc(C(F)(F)Cl)n2n1 5.28%
O=S(=O)(c1ccc(OC(F)(F)F)cc1)N1CCC(c2nc3ccccc3s2)CC1 1.45%
CCCOc1ccc2nc(NC(=O)OC)[nH]c2c1
CCOc1ccc(OCC)c(Nc2nc3ccc(C(=O)c4ccccc4)cc3n3cnnc23)c1 0.313%
O=C(Cn1cc(SCc2ccccc2F)c2ccccc21)N1CCCC1 42.1%
CCCCOc1ccc(OCCCN2CCOCC2)cc1 11.8%
CCC(=O)Nc1ccccc1-c1nc2ccccc2n(CC(=O)Nc2ccc(C)c(C)c2)c1=O -8.8%
Cn1c(=O)c2cc(C(=O)Nc3cccc(C#N)c3)sc2c2ccccc21 -4.59%
COc1ccc(C2=NN(CC(=O)NCCc3ccccc3)C(=O)CC2)cc1 8.03%
COC(=O)c1ccc(NC(=O)NC(C)c2c(-n3cccc3)sc(C)c2C)cc1 (stereo not drawn) -31.6%
O=C(NC1CCCC1)c1ccc(CSc2nc3cccnc3n2Cc2ccccc2)cc1 -21.2%
COC(=O)c1sc2cccc(F)c2c1S(=O)(=O)Nc1cc(C)c(Cl)cc1OC -19.6%
O=C(COc1ccc(Cl)cc1)Nc1ccc(-c2nc3cc(Cl)ccc3o2)c(O)c1 56.4%
CCCNC(=O)C1CCC(Cn2c(=O)c3sccc3n(CC(=O)N3CCCC3)c2=O)CC1 (stereo not drawn) -5.09%
CCc1cccc(C)c1NC(=O)CN1C(=O)c2ccccc2Sc2ncccc21 -15.7%
CCCNC(=O)CN1C(=O)c2c(c3ccccc3n2C)C1c1ccc(OC)cc1 (stereo not drawn) -26.1%
COc1ccc(CNC(=O)c2cc3oc4ccccc4c3n2C)cc1OC -27.6%
CN[C@@H]1[C@@H](O)[C@@H](O[C@@H]2[C@H](O)[C@H](O[C@H]3OC(CN)=CC[C@H]3N)[C@@H](N)C[C@H]2N)OCC1(C)O (stereo partly drawn) 0.179%
